# According to US20190322765A1 (Hoffmann-La Roche, published 2019):
# T1: IL-2R βγ heterodimer on human cells (NK92 cells, NK and T cells of PBMC) (human, UniProt P14784 27-551; P31785 23-369)
# T1 sequence (looked up) 1: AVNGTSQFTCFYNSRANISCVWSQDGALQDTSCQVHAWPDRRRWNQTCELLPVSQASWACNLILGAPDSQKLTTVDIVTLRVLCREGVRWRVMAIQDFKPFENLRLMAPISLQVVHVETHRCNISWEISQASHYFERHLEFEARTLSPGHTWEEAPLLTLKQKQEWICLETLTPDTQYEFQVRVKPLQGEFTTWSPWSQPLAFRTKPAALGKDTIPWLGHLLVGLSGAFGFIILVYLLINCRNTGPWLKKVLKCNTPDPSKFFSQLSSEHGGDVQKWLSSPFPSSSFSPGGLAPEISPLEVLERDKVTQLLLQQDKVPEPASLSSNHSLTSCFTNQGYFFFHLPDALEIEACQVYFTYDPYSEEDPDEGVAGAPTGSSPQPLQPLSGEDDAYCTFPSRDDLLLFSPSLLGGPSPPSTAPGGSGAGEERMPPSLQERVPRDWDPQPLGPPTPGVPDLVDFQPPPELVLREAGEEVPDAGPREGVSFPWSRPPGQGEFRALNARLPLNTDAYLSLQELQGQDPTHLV
# T1 sequence (looked up) 2: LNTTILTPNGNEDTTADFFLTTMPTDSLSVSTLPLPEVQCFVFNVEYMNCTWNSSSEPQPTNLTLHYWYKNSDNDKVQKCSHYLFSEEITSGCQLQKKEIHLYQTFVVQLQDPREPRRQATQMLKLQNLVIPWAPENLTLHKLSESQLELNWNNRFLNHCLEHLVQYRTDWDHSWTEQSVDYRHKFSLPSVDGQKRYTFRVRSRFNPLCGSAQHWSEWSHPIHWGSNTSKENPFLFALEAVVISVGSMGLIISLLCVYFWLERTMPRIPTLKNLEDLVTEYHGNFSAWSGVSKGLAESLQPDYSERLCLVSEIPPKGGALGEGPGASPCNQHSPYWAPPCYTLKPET
# T2: human IL-2R α-subunit, monomeric, with AcTev cleavage site and Avi His tag (human)
# T2 construct: also called Hu IL-2R α; CD25
# T2 chain: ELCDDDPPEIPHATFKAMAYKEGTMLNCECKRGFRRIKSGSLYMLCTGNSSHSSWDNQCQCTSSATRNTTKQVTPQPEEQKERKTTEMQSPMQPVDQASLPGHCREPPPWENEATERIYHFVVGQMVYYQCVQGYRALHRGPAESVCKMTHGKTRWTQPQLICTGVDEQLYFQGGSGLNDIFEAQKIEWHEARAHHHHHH
# T3: murine IL-2R βγ heterodimer (β knob γ hole Fc fusion) (murine, UniProt P16297 27-240; P34902 23-263)
# T3 construct: also called Mu IL-2R βγ; mouse IL-2R βγ heterodimer; not shown: Fc knob/hole part
# T3 sequence (looked up) 1: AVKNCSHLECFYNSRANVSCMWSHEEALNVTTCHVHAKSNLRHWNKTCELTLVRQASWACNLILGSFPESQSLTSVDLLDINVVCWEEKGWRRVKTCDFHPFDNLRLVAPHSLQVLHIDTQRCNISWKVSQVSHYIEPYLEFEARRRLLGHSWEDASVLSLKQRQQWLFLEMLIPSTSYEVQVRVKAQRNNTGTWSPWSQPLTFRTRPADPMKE
# T3 sequence (looked up) 2: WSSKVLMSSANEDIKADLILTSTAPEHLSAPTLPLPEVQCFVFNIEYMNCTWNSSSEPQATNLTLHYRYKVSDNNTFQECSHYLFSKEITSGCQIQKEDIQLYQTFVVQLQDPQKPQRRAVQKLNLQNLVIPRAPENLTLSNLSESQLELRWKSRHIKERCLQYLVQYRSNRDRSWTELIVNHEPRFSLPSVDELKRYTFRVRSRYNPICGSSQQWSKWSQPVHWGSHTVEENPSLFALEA
# T4: murine IL-2R α-subunit, recombinant monomeric (murine, UniProt P01590 22-236, limits assumed)
# T4 construct: also called Mu IL-2R α
# T4 sequence (looked up): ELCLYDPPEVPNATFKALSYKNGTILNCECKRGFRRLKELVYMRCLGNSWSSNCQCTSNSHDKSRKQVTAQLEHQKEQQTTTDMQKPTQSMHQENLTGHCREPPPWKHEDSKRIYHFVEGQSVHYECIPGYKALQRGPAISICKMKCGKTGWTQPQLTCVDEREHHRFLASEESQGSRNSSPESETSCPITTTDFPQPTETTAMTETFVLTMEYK
# Assays:
# [1] = target: T1, IL-2R βγ heterodimer on human cells …; assay: cell-based or functional assay
# [2] = target: T2, human IL-2R α-subunit, monomeric, with …; assay: SPR, receptor on chip, 25°C
# [3] = target: T5, human IL-2R βγ heterodimer, subunit-Fc knobs-into-holes fusion (human); assay: SPR, receptor on chip, construct analyte, 25°C, two state reaction fit
# T5 construct: The entries may hold a leader peptide; also called Hu IL-2R βγ; human IL2-R β knob γ hole heterodimer
# [4] = target: T3, murine IL-2R βγ heterodimer (β knob γ …); assay: as above
# [5] = target: T6, human FAP expressed on stably transfected HEK293 cells (human, UniProt Q12884 1-760); assay: FACS on stably transfected HEK293 cells
# T6 construct: whole, on cells
# [6] = target: FAP on GM05389 fibroblasts; assay: FACS on GM05389 fibroblasts, surface-bound construct detected with secondary antibody after the times shown (internalization analysis); concentration not shown
# [7] = target: T7, human DPPIV on transfected HEK 293 cells (human, UniProt P27487 1-766); assay: FACS on HEK 293-human DPPIV cells, with HEK mock-transfected cells, cells only and sec. antibody as controls; concentration not shown
# T7 construct: whole, on cells; also called CD26
# T7 sequence (P27487 whole entry): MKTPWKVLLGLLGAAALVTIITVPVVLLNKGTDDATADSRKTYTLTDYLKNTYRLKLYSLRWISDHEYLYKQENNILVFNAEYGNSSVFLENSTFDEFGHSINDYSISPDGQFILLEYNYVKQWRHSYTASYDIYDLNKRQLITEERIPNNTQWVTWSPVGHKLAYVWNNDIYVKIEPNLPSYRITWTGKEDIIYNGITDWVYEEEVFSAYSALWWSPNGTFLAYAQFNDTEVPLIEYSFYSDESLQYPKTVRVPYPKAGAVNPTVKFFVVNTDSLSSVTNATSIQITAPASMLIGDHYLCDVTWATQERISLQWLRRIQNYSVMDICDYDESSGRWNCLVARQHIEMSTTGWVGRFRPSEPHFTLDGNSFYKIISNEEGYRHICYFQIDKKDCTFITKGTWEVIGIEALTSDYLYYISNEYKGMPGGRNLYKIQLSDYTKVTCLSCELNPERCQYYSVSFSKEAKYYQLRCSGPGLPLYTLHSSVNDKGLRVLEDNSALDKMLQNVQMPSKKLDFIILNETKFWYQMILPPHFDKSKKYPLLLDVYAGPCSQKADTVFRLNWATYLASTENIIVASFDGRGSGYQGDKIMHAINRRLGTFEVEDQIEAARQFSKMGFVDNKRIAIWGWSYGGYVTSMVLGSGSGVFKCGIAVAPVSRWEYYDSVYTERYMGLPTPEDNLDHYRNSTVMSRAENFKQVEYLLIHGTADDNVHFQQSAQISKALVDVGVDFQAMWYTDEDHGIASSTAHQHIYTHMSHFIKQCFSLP
# [8] = target: T4, murine IL-2R α-subunit, recombinant …; assay: SPR, receptor on chip, 25°C
# [9] = target: T5, human IL-2R βγ heterodimer, subunit-Fc …; assay: SPR, receptor on CM5, 25°C, apparent KD, 1:1 fit
# [10] = target: T2, human IL-2R α-subunit, monomeric, with …; assay: SPR, receptor on CM5, 25°C
# human FAP-His = target: T8, human FAP-His (human, UniProt Q12884 27-760); assay: SPR bridging: construct captured on immobilized human IL-2R βγ, human FAP analyte, 1:1 fit, 25°C
# T8 construct: also called Hu FAP; His-tagged human FAP; not shown: His tag
Binder,EC50 of IFN-γ release by NK92 cells [1],binding result [2],Kd [3],Kd [4],EC50 [5],binding result [6],binding result [7],binding result [8],Kd [9],binding result [10],Kd (human FAP-His)
"4G8 Fab-IL-2 (triple mutant F42A/Y45A/L72G)-Fab (other, Fab-IL-2-Fab immunoconjugate, triple mutant; also called 4G8 IL-2 triple mutant F42A/Y45A/L72G; 4G8 Fab-IL-2 (triple mutant 42/45/72)-Fab; copies: 1 + 2) heavy: [no letters for about 100 residues]GWLGNFDYWGQGTLVTVSSASTKGPSVFPLAPSSKSTSGGTAALGCLVKDYFPEPVTVSWNSGALTSGVHTFPAVLQSSGLYSLSSVVTVPSSSLGTQTYICNVNHKPSNTKVDKKVEPKSCDSGGGGSGGGGSGGGGAPTSSSTKKTQLQLEHLLLDLQMILNGINNYKNPKLTRMLTAKFAMPKKATELKHLQCLEEELKPLEEVLNGAQSKNFHLRPRDLISNINVIVLELKGSETTFMCEYADETATIVEFLNRWITFAQSIISTLTSGGGGSGGGGSGGGG[no letters for about 100 residues][no letters for about 120 residues] light: EIVLTQSPGTLSLSPGERATLSCRASQSVSRSYLAWYQQKPGQAPRLLIIGASTRATGIPDRFSGSGSGTDFTLTISRLEPEDFAVYYCQQGQVIPPTFGQGTKVEIKRTVAAPSVFIFPPSDEQLKSGTASVVCLLNNFYPREAKVQWKVDNALQSGNSQESVTEQDSKDSTYSLSSTLTLSKADYEKHKVYACEVTHQGLSSPVTKSFNRGEC",24.4 nM,no binding (tested: 200 nM),5.6 nM,68.8 nM,,,,,,,
"4G8 Fab-IL-2 qm-Fab (other, Fab-IL-2-Fab immunoconjugate against FAP with quadruple mutant IL-2; also called 4G8 IL-2 quadruple mutant T3A/F42A/Y45A/L72G; FAP 4G8 qm) [no letters for about 100 residues]GWLGNFDYWGQGTLVTVSSASTKGPSVFPLAPSSKSTSGGTAALGCLVKDYFPEPVTVSWNSGALTSGVHTFPAVLQSSGLYSLSSVVTVPSSSLGTQTYICNVNHKPSNTKVDKKVEPKSCDSGGGGSGGGGSGGGGAPASSSTKKTQLQLEHLLLDLQMILNGINNYKNPKLTRMLTAKFAMPKKATELKHLQCLEEELKPLEEVLNGAQSKNFHLRPRDLISNINVIVLELKGSETTFMCEYADETATIVEFLNRWITFAQSIISTLTSGGGGSGGGGSGGGG[no letters for about 100 residues][no letters for about 120 residues] light: EIVLTQSPGTLSLSPGERATLSCRASQSVSRSYLAWYQQKPGQAPRLLIIGASTRATGIPDRFSGSGSGTDFTLTISRLEPEDFAVYYCQQGQVIPPTFGQGTKVEIKRTVAAPSVFIFPPSDEQLKSGTASVVCLLNNFYPREAKVQWKVDNALQSGNSQESVTEQDSKDSTYSLSSTLTLSKADYEKHKVYACEVTHQGLSSPVTKSFNRGEC",,,5.2 nM,56.2 nM,0.7 nM,binds,no binding,no binding (tested: 200 nM),10.4 nM,no binding (tested: 300 nM),5.6 nM
